Experimental data from PMC4125091.
Results are given in words; binding and its absence hold for the method and conditions named. In cells and extracts the contact can be indirect. Some entries that bind do so weakly or less than the wild type. Where a sequence is shown, tags or fusion partners need not be part of it.

Chains of the proteins cited; added tags and fusions are not shown.
UniProt P06224: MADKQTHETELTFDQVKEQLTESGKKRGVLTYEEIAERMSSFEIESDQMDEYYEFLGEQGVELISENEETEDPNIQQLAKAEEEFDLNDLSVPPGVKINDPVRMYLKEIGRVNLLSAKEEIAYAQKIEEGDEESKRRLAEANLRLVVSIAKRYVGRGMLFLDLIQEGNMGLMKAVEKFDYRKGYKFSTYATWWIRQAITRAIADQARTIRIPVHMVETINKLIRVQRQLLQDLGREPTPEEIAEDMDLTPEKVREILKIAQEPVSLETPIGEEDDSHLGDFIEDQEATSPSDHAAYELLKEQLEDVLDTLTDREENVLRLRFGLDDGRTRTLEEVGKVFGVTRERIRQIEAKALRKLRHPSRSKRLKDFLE

B1: SpoIIE-GFP (protein, UniProt P37475 1-827)
chain: MEKAERRVNGPMAGQALEKLQSFFNRGTKLVTHHLHSLFFYKGFIYVVIGFLLGRAFILSEVLPFALPFFGAMLLIRRDKAFYAVLAVLAGALTISPKHSLLILAALLAFFVFSKVAAFITDDRVKALPIVVFFSMAAARAGFVYAQNGVFTTYDYVMAIVEAGLSFILTLIFLQSLPIFTVKKVKQSLKIEEIICFMILIASVLTGLAGLSYQGMQAEHILARYVVLSFSFIGGASIGCTVGVVTGLILGLANIGNLYQMSLLAFSGLLGGLLKEGKKAGAAIGLIVGSLLISLYGEGSAGLMTTLYESLIAVCLFLLTPQSITRKVARYIPGTVEHLQEQQQYARKIRDVTAQKVDQFSNVFHALSESFATFYQASDEQTDDSEVDLFLSKITEHSCQTCYKKNRCWVQNFDKTYDLMKQVMLETEEKEYASNRRLKKEFQQYCSKSKQVEELIEDELAHHHAHLTLKKKVQDSRRLVAEQLLGVSEVMADFSREIKREREQHFLQEEQIIEALQHFGIEIQHVEIYSLEQGNIDIEMTIPFSGHGESEKIIAPMLSDILEEQILVKAEQHSPHPNGYSHVAFGSTKSYRVSTGAAHAAKGGGLVSGDSYSMMELGARKYAAAISDGMGNGARAHFESNETIKLLEKILESGIDEKIAIKTINSILSLRTTDEIYSTLDLSIIDLQDASCKFLKVGSTPSFIKRGDQVMKVQASNLPIGIINEFDVEVVSEQLKAGDLLIMMSDGIFEGPKHVENHDLWMKRKMKGLKTNDPQEIADLLMEEVIRTRSGQIEDDMTVVVVRIDHNTPKWASIPVPAIFQNKQEIS
B2: DivIVA (native, untagged) (protein, UniProt P71021 1-164)
chain: MPLTPNDIHNKTFTKSFRGYDEDEVNEFLAQVRKDYEIVLRKKTELEAKVNELDERIGHFANIEETLNKSILVAQEAAEDVKRNSQKEAKLIVREAEKNADRIINESLSKSRKIAMEIEELKKQSKVFRTRFQMLIEAQLDLLKNDDWDHLLEYEVDAVFEEKE

Tests used:
[1] = biological target: T1, DivIVA-FLAG (B. subtilis) (UniProt P71021); assay: co-IP; anti-FLAG affinity resin incubated overnight at 4°C with Triton X-100-solubilized extracts of B. subtilis induced to sporulate for 1.5 h (50 mM Tris pH 7.4, 150 mM NaCl, 1 mM EDTA, 1% Triton X-100); washed, eluted with FLAG peptide; fractions immunoblotted with antisera to GFP, DivIVA or σ^A
T1 sequence: B2 chain

[2] = biological target: T2, SpoIIE-FLAG (B. subtilis) (UniProt P37475); assay: as above
T2 sequence: B1 chain

Molecule	binding [1]	binding [2]
σ^A (from UniProt P06224 1-371)	no binding	no binding
B1	binds	–
B2	binds	binds
MKFYTIKLPKFLGGIVRAMLGSFRKD (peptide, UniProt P37817 1-26) [SpoVM-GFP]	no binding	–
